{
  "source": "PubChem BioAssay AID588855",
  "about": "(National Center for Advancing Translational Sciences (NCATS), 2011)",
  "note": "Values joined by “and” are separate entries in the source; they are usually repeats but may differ in a detail not shown here. Identical values can stand only once. About 5,000 (1.2%) of roughly 410,000 compounds were called active. The shares of active, inactive and inconclusive entries below differ from those in the screen. Calls come from the whole dose curve; as a rule, active = well fitted inhibition curve with a large enough effect; inconclusive = small, poorly fitted or top-dose-only effect; inactive = no such curve, though single readings can be large or run the other way. Where the call is inconclusive, the potency comes from a doubtful curve fit. % is set by controls: 0 for no effect and ±100 for the full control effect; potency is the fitted concentration of half-maximal effect; tags give direction and shape of the fitted curve.",
  "data": [
    {"experiment": "qHTS for Inhibitors of TGF-b; note: nearly all actives have a fitted effect of over 65% in size", "conditions": "HepG2 CAGA-GFP TGF-b/SMAD3 reporter, GFP fluorescence, 18 h, TGF-beta stimulated, 500 pg/mL final; series mostly up to 46.1 µM; activity, negative = inhibition: at the top concentration", "method_in_brief": "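Inhibition of TGF-beta-driven CAGA-GFP reporter expression in HEPG2 cells is measured by cellular GFP fluorescence after 18 h stimulation with 500 pg/mL recombinant TGF-beta in 1% FBS medium at 37 degrees C.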", "values": [
      {"smiles": "N#CC1CCN(C(=O)c2ccc3c(Cl)c4c(nc3c2)CCCC4)CC1", "Potency": "inconclusive: 10 µM [inhibitor, partial curve, poor fit]"},
      {"smiles": "Fc1ccc2nc(Nc3nc4cc5c(cc4s3)OCO5)sc2c1", "Potency": "inconclusive: 35.5 µM [inhibitor, single point]"},
      {"smiles": "COc1cc(NC(=O)Nc2ccc(C)cc2)cc([N+](=O)[O-])c1", "Potency": "inconclusive: 35.5 µM [inhibitor, single point]"},
      {"smiles": "COC(=O)c1cc2oc3ccccc3c2n1CC(=O)Nc1ccc(Cl)cc1F", "Potency": "inconclusive: 2.82 µM [inhibitor, partial curve, poor fit]"},
      {"smiles": "CCC1=NN(C(=O)c2cccc([N+](=O)[O-])c2)C(O)(c2ccc(C)cc2)C1", "note": "(configuration not stated)", "Potency": "inconclusive: 35.5 µM [inhibitor, single point]"},
      {"smiles": "O=c1oc2ccccc2c(Nc2ccccc2)c1CN1CCCCC1", "Potency": "inconclusive: 31.6 µM [inhibitor, single point]"},
      {"smiles": "NC(=O)CC(NC(=O)Cc1cccc2ccccc12)c1ccc(NCc2ccccn2)c([N+](=O)[O-])c1", "note": "(configuration not stated)", "Potency": "inconclusive: 17.8 µM [inhibitor, single point]"},
      {"smiles": "COc1ccccc1N1CCN(CCCCOc2ccc(F)cc2)CC1", "Potency": "inconclusive: 17.8 µM [inhibitor, single point]"},
      {"smiles": "Cc1ccc(NS(=O)(=O)c2ccc(-n3cccn3)cc2)cc1Cl", "Potency": "inconclusive: 35.5 µM [inhibitor, single point] and inconclusive: 12.6 µM [inhibitor, partial curve]"},
      {"smiles": "OC(CNCCc1ccc(Cl)cc1)COc1ccc2ccccc2c1", "note": "(configuration not stated)", "Potency": "inconclusive: 22.4 µM [inhibitor, single point]"},
      {"smiles": "COC(=O)NC(=C(Cl)Cl)S(=O)(=O)c1ccccc1", "Potency": "inconclusive: 35.5 µM [inhibitor, single point]"},
      {"smiles": "CCc1ccc(N2CCN(CCNC(=O)Nc3ccccc3)CC2)cc1", "Potency": "inconclusive: 12.6 µM [inhibitor, partial curve, poor fit]"},
      {"smiles": "COC(=O)c1ccc(COc2ccc(C3C4=C(CCCC4=O)Nc4onc(C)c43)cc2)cc1", "note": "(configuration not stated)", "Potency": "inconclusive: 15.8 µM [inhibitor, single point]"},
      {"smiles": "OC(CBr)CN1CCCCC1", "note": "(configuration not stated)", "activity, negative = inhibition": "inactive: 0.422%"},
      {"smiles": "Cc1cnc(C(=O)Nc2ccccc2F)cn1", "activity, negative = inhibition": "inactive: 6.93%"},
      {"smiles": "CCOC(=O)C1CCN(C(=O)CSc2nnc(-c3ccco3)n2-c2ccccc2)CC1", "Potency": "inconclusive: 35.5 µM [inhibitor, single point]"},
      {"smiles": "CCC(C)(C)n1nnnc1C(c1cccs1)N1CCc2ccccc21", "note": "(configuration not stated)", "Potency": "active: 12.6 µM"},
      {"smiles": "CC(C)N(Cc1ccccc1)C(=S)NC(=O)C1(C)CC1(Cl)Cl", "note": "(configuration not stated)", "Potency": "inconclusive: 1 µM [inhibitor, full curve, poor fit]"},
      {"smiles": "CCOC(=O)c1sc(=S)n(-c2ccccc2)c1SC", "Potency": "inconclusive: 35.5 µM [inhibitor, single point]"},
      {"smiles": "Cc1ccccc1N=C1C(=O)Nc2ccccc21", "Potency": "inconclusive: 3.98 µM [inhibitor, single point]"},
      {"smiles": "COC(=O)c1c(C(=O)c2ccc(Br)cc2)n(C)c2ccccc12", "activity, negative = inhibition": "inactive: -21.2%"},
      {"smiles": "Cc1nnc(SCc2cc(=O)n3[nH]cnc3n2)s1", "Potency": "inconclusive: 10 µM [inhibitor, partial curve, poor fit]"},
      {"smiles": "Cc1ccc(OCc2cc(C(=O)NCC(C)(C)N3CCOCC3)no2)cc1C", "activity, negative = inhibition": "inactive: 0%"},
      {"smiles": "Cc1nc(C(=O)Nc2cc(F)cc(Cl)c2)sc1C1(C)CC(c2ccccc2)=NO1", "note": "(configuration not stated)", "Potency": "inconclusive: 35.5 µM [inhibitor, single point]"},
      {"smiles": "COc1ccc(/C=N/Nc2nc(N)cc(Cl)n2)cc1OC", "Potency": "inconclusive: 35.5 µM [inhibitor, single point]"},
      {"smiles": "COc1ccc(/C=N/NC(=O)c2nc(-c3ccccc3)cc(-c3ccccc3)n2)cc1O", "Potency": "inconclusive: 15.8 µM [inhibitor, single point]"},
      {"smiles": "COc1ccc(S(=O)(=O)N2CCN(c3ccc4nnc(-c5ccc(F)cc5)n4n3)CC2)cc1", "Potency": "inconclusive: 20 µM [inhibitor, partial curve, poor fit]"},
      {"smiles": "Cc1ccc(C)c(N2CCN(C(=O)NCc3noc4ccc(C)cc34)CC2)c1", "Potency": "inconclusive: 35.5 µM [inhibitor, single point]"},
      {"smiles": "COc1cc(/C=C/c2ccc3ccccc3[n+]2C)cc(OC)c1OC", "activity, negative = inhibition": "inactive: 10.2%"},
      {"smiles": "Cc1ccc(-n2nc3c(=O)n(CC(=O)NCCCc4ccccc4)nc(C)c3c2C)cc1", "Potency": "inconclusive: 5.01 µM [inhibitor, partial curve]"},
      {"smiles": "CCOC(=O)CSc1nc2cc(OC)c(OC)cc2cc1C#N", "activity, negative = inhibition": "inactive: 6.21%"},
      {"smiles": "Brc1ccccc1OCCCN1CCCC1", "activity, negative = inhibition": "inactive: 20.8%"},
      {"smiles": "Cc1cc(NC(=O)c2noc3c2CCCC3)nn1Cc1ccc(Cl)cc1", "Potency": "inconclusive: 12.6 µM [inhibitor, single point]"},
      {"smiles": "COc1ccc(C(C)=O)cc1CSc1nnc(-c2ccc(Cl)cc2)n1-c1ccccc1", "activity, negative = inhibition": "inactive: -19.6%"},
      {"smiles": "CN(C)c1ncc(S(=O)(=O)c2ccccc2)c(-c2ccc(Cl)cc2Cl)n1", "activity, negative = inhibition": "inactive: -4.92%"},
      {"smiles": "Cc1ccc(C)c(S(=O)(=O)c2nnn3c2nc(NC2CCCCC2)c2sccc23)c1", "Potency": "inconclusive: 14.1 µM [inhibitor, partial curve, poor fit]"},
      {"smiles": "CCc1cc(C(=O)Cc2ccc(F)cc2)c(O)cc1O", "Potency": "inconclusive: 10 µM [inhibitor, partial curve, poor fit]"},
      {"smiles": "CC1=NN(C(N)=S)C(=O)C1N=Nc1ccc(Br)cc1", "note": "(configuration not stated)", "activity, negative = inhibition": "inactive: -0.44%"},
      {"smiles": "Cc1ccc(NC(=O)c2cc(S(=O)(=O)N3CCc4ccccc43)cn2C)c(Cl)c1", "Potency": "inconclusive: 7.08 µM [inhibitor, partial curve]"},
      {"smiles": "O=C(CC1NCCNC1=O)Nc1ccc([N+](=O)[O-])cc1", "note": "(configuration not stated)", "Potency": "inconclusive: 35.5 µM [inhibitor, single point]"},
      {"smiles": "COc1ccc(CNC(=O)c2cn(Cc3ccccc3F)c(=O)s2)cc1", "Potency": "inconclusive: 12.6 µM [inhibitor, partial curve, poor fit]"},
      {"smiles": "CNC(=S)N(Cc1ccc(Cl)cc1)Cc1cccs1", "activity, negative = inhibition": "inactive: -26.4%"},
      {"smiles": "Cc1ccc(C)c(S(=O)(=O)NC2CCSC2=O)c1", "note": "(configuration not stated)", "Potency": "inconclusive: 35.5 µM [inhibitor, partial curve, poor fit]"},
      {"smiles": "O=C(CN1CCC(Cc2ccccc2)CC1)NCCc1ccc(F)cc1", "Potency": "inconclusive: 15.8 µM [inhibitor, single point]"},
      {"smiles": "Cc1ccccc1OCC(=O)Nc1cccc(C(=O)OCc2cc(=O)n3c(C)csc3n2)c1", "Potency": "inconclusive: 22.4 µM [inhibitor, single point]"},
      {"smiles": "COc1cccc(-c2csc(N3CCN(C(=S)Nc4ccccc4OC)CC3)n2)c1", "activity, negative = inhibition": "inactive: -26.1%"},
      {"smiles": "Cc1ccc(S(=O)(=O)Cc2ccc(C(=O)N3CCN(c4cccc(Cl)c4)CC3)o2)cc1", "Potency": "inconclusive: 35.5 µM [inhibitor, single point]"},
      {"smiles": "COc1ccc2[nH]c3c(c2c1)CCN(C(=O)c1cccc(Cl)c1)C3c1ccc(F)cc1", "note": "(configuration not stated)", "Potency": "inconclusive: 10 µM [inhibitor, partial curve]"},
      {"smiles": "FC(F)Oc1ccc(/C=N/NC(=S)Nc2cc(C(F)(F)F)ccc2Cl)cc1", "activity, negative = inhibition": "inactive: 0.837%"},
      {"smiles": "CCOC(=O)c1ccc(OCC2NCCc3cc(OC)c(OC)cc32)cc1", "note": "(configuration not stated)", "activity, negative = inhibition": "inactive: 3.51%"},
      {"smiles": "COc1ccc2c(c1)C(=O)N1[C@H]3c4cc(Br)ccc4OC[C@@H]3[C@H](c3ccccc3)[C@]1(C)C(=O)N2", "Potency": "inconclusive: 22.4 µM [inhibitor, partial curve, poor fit]"},
      {"smiles": "CCOC(=O)CSc1ccc(C(=O)NCCCN2CCOCC2)cc1[N+](=O)[O-]", "activity, negative = inhibition": "inactive: 4.12%"},
      {"smiles": "COc1cc2cc(C(=O)Nc3ccccc3)c(N)nc2cc1OC", "activity, negative = inhibition": "inactive: 17.4%"},
      {"smiles": "COC(=O)c1cc(=O)n(CCc2ccc(OC)cc2)c(=Nc2ccc(F)c(Cl)c2)s1", "Potency": "inconclusive: 17.8 µM [inhibitor, single point]"},
      {"smiles": "Cc1cnc(C(=O)NC(Cc2ccccc2)c2ccccc2)cn1", "note": "(configuration not stated)", "activity, negative = inhibition": "inactive: 10.6%"},
      {"smiles": "CCOC(=O)c1ccc(C(=O)NNC(=O)C2CC=CCC2)cc1", "note": "(configuration not stated)", "Potency": "inconclusive: 35.5 µM [inhibitor, partial curve, poor fit]"},
      {"smiles": "O=C(NCc1nc(-c2ccc(C(F)(F)F)cc2)no1)Nc1ccc(OC(F)(F)F)cc1", "Potency": "active: 11.2 µM"},
      {"smiles": "Cc1cccc(NC(=S)/N=C(\\N)Nc2nc(C)c3ccccc3n2)c1", "Potency": "inconclusive: 20 µM [inhibitor, single point]"},
      {"smiles": "O=C(OCC(=O)N1CCN(C(=O)c2ccco2)CC1)c1cc(-c2ccc(Cl)c(Cl)c2Cl)nc2ccccc12", "Potency": "inconclusive: 35.5 µM [inhibitor, single point]"},
      {"smiles": "Cc1cc(NC(=O)c2ccc3c(c2)OCCO3)ccc1NC(=O)c1cc2ccccc2o1", "Potency": "inconclusive: 35.5 µM [inhibitor, single point]"},
      {"smiles": "COC(=O)c1ccc(C2c3c(oc4ccccc4c3=O)C(=O)N2CCCN2CCOCC2)cc1", "note": "(configuration not stated)", "activity, negative = inhibition": "inactive: 5.94%"},
      {"smiles": "O=C(COC(=O)c1ccc([N+](=O)[O-])s1)NNC(=O)c1ccccc1", "Potency": "inconclusive: 25.1 µM [inhibitor, single point]"},
      {"smiles": "CCC(C)NC(=O)c1ccc(CN2CCc3ccccc3C2)cc1", "note": "(configuration not stated)", "activity, negative = inhibition": "inactive: -12.8%"},
      {"smiles": "Cn1c(CC2Sc3ccccc3NC2=O)nnc1SCC(=O)c1ccc(Cl)cc1", "note": "(configuration not stated)", "Potency": "inconclusive: 14.1 µM [inhibitor, single point]"},
      {"smiles": "CC(C)(C)c1ccc(S(=O)(=O)NNC(=O)c2cc3ccccc3[nH]2)cc1", "Potency": "inconclusive: 35.5 µM [inhibitor, partial curve, poor fit]"},
      {"smiles": "CCCCC(=O)Nc1ccc(S(=O)(=O)N2CCCCC2c2cccnc2)cc1", "note": "(configuration not stated)", "Potency": "inconclusive: 3.55 µM [inhibitor, single point]"},
      {"smiles": "CCOC(=O)c1ccc(N=c2sc(C(=O)OC)cc(=O)n2CCCN2CCOCC2)cc1", "Potency": "inconclusive: 17.8 µM [inhibitor, single point] and inconclusive: 35.5 µM [inhibitor, single point]"}
    ]}
  ]
}
